Experimental data published in PubChem BioAssay AID686978 (National Center for Advancing Translational Sciences (NCATS), 2013).
Hit rate of the full screen: of about 420,000 compounds, about 64,000 (15%) were called active. Inconclusive results, whose numbers are uncertain, are shown with a selection of clear calls. The call rests on the fitted dose curve; in most records, active means well fitted inhibition curve with a large enough effect; inconclusive means small, poorly fitted or top-dose-only effect; inactive means flat fitted curve, though single readings scatter. No potency is given beside an inconclusive call; the fits are too rough.

assay: qHTS for Inhibitors of human tyrosyl-DNA phosphodiesterase 1 (TDP1): qHTS in cells in absence of CPT; conditions: DT40 Tdp1-/- hTDP1 cells, no CPT, ATP luminescence, 48 h; activity change, negative = growth inhibition: at 46.2 µM (top of the series) unless noted; further: nearly all actives have a fitted effect of over 55% in size
In short: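 Chicken DT40 Tdp1-/- cells stably complemented with human TDP1 were seeded at 400 cells/well with DMSO in place of 20 nM camptothecin. After compound pinning, cells grew at least 48 hr at 37 °C; viability read by CellTiter-Glo luminescence.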
On the % scale 0 is the no-effect control and ±100 the full control effect; potency means the concentration at half of the fitted maximal effect; tags describe the fitted curve by direction and shape.

SMILES | Potency | activity change, negative = growth inhibition
Cc1cccc(Nc2nc3ccccc3n3nnnc23)c1 | inconclusive [inhibitor, single point] | 
CC(C)(C)OC(=O)C[C@@H]1C/C=C\C[C@@H](CC(=O)N(CCO)Cc2ccccc2)C(=O)N2CCC[C@H]2COC1=O | inconclusive [inhibitor, single point] | 
CCOc1ccccc1NC(=O)C(=O)NCCc1sc(-c2cccc(F)c2)nc1C | inactive | 
CN(CC(=O)Nc1cccc(F)c1)CC(=O)Nc1cccc(S(=O)(=O)N2CCCCCC2)c1 | active: 16.4 µM | 
CCOC(=O)N1CCN(S(=O)(=O)c2ccc(OC)c(Cl)c2Cl)CC1 | active: 13 µM | 
COc1ccc(S(=O)(=O)n2oc(=O)cc2-c2ccccc2)cc1 | inactive | 
CCCSc1nc2c(c(=O)[nH]c(=O)n2C)n1CC(O)COc1ccccc1 (configuration not stated) | inconclusive [inhibitor, single point] | 
CC/C(C)=C1/NC(=O)NC1=O |  | inconclusive: -28.1% [inhibitor]
COc1ccc(NC(=O)N2CC[C@@]3(CCCN(C(=O)c4cc(C(F)(F)F)cc(C(F)(F)F)c4)C3)C2)cc1 | inactive | 
COC(=O)C1(C)NC(c2ccc(Cl)cc2)C2C(=O)N(c3ccccc3)C(=O)C21 (configuration not stated) | inactive | 
N[C@H](CSCc1ccccc1)C(=O)Nc1ccc([N+](=O)[O-])cc1 | inconclusive [inhibitor, single point] | 
CCCC(=O)Nc1ccc(C(=O)Nc2nc(CC(=O)OCC)cs2)cc1 | inconclusive [inhibitor, single point] | 
Cc1noc(C)c1CN(C(=S)NC1CC2CCC1C2)c1ccccc1 (configuration not stated) | active: 23.1 µM | 
CC1(C(=O)N/N=C/c2ccc([N+](=O)[O-])o2)CC1(Br)Br (configuration not stated) | active: 10.3 µM | 
Cc1ccc(Nc2c(-c3cccs3)nc3nc(C)cc(C)n23)cc1 | inconclusive [inhibitor, single point] | 
O=S1(=O)CC(N2CC=CC2)CN1Cc1cn(Cc2cccc(C(F)(F)F)c2)nn1 (configuration not stated) | inactive | 
Cc1oc2ncnc(N3CCCCC3)c2c1C(=O)N1CCN(c2cccc(C(F)(F)F)c2)CC1 | active: 13 µM | 
COCCNC(=O)c1ccc(-c2csc(C)n2)cc1 | inactive | 
c1ccc(-c2cc3ccccc3nc2N2CCCC2)cc1 | inconclusive [inhibitor, single point] | 
CC(C)[C@@H]1COC(c2cccc(C3=N[C@H](C(C)C)CO3)c2)=N1 | inconclusive [inhibitor, single point] | 
CC(=O)c1ccc(N2CCN(C(=O)C3CCN(S(=O)(=O)c4ccc5c(c4)CC(C)N5C(C)=O)CC3)CC2)cc1 (configuration not stated) | inconclusive [inhibitor, partial curve] | 
CCC(C(=O)Nc1ccc(C(=O)N2CCCC2)cc1)c1ccccc1 (configuration not stated) | inconclusive [inhibitor, single point] | 
CN(c1ccccc1)S(=O)(=O)c1cccc(NC(=O)c2cc(=O)c3ccccc3o2)c1 | active: 11.6 µM | 
O=C(CSc1ccc(-c2ccccn2)nn1)NCc1ccccc1 | inactive | 

SMILES | Potency | activity change, negative = growth inhibition
O=C(CCCCn1ccc(=O)[nH]c1=O)Nc1ccc(C(=O)O)c(O)c1 | inactive | 
CN(C)CC(C(=O)c1ccccc1)c1ccccc1 (configuration not stated) | active: 1.46 µM | 
O=c1sc2ccccc2n1Cc1ccccc1 | inactive | 
O=C(NCc1ccc2c(c1)OCO2)c1ccc(S(=O)(=O)N2CCOCC2)cc1 | inconclusive [inhibitor, single point] | 
CCCNC(=O)COc1coc(CN2CCN(C(=O)c3ccco3)CC2)cc1=O | inactive | 
CCOc1ccc(-n2c(SCC(=O)N3CCOCC3)nc3c([nH]c4ccccc43)c2=O)cc1 | inconclusive [inhibitor, partial curve, poor fit] | 
CC(C)(C)OC(=O)N1CCC(c2c(C(=O)N3CCN(C(=O)c4ccco4)CC3)cnn2-c2cccc(F)c2)CC1 | inconclusive [inhibitor, single point] | 
O=C(CSc1ccccn1)Nc1cccc([N+](=O)[O-])c1 | inconclusive [inhibitor, partial curve] | 
CCOC(=O)c1c(NC(=O)COc2ccccc2C#N)sc2c1CC(C)(C)NC2(C)C | active: 5.8 µM | 
O=S(=O)(Nc1ccccc1OC(F)F)c1ccc(S(=O)(=O)N2CCCC2)cc1 | inconclusive [inhibitor, single point] | 
Nc1[nH]c(C(=O)c2ccccc2)c(-c2ccccc2C(F)(F)F)c1C(=O)NCCc1cccs1 | inactive | 
CCCC(=O)N1CCN(c2nc3c(OC)ccc(C)c3s2)CC1 | inconclusive [inhibitor, single point] | 
CCCCC1=CC2=C(c3ccco3)C(=O)C(C)(OC(=O)c3ccc(OC)cc3)C(=O)C2=CN1CC(C)C (configuration not stated) | active: 5.17 µM | 
CC(C)(C)Nc1nc(N)nc(Cl)n1 | inconclusive [inhibitor, single point] | 
Cc1cccc(NS(=O)(=O)c2ccc(Br)s2)n1 | inactive | 
CCCCSc1nc2c([nH]1)c(=O)n(C)c(=S)n2C | inconclusive [inhibitor, single point] | 
CCn1c(CSc2nc3ccccc3s2)nnc1SCC(=O)c1ccc(Cl)cc1 | active: 20.6 µM | 
CCN(CC)c1ccc(C(=O)OCC(=O)Nc2cc(C)on2)cc1 | inconclusive [inhibitor, single point] | 
O=C(Nc1cccc(C(=O)N2CCN(Cc3ccccc3)CC2)c1)c1ccccc1 | inconclusive [inhibitor, partial curve] | 
COc1cc(C2c3c([nH]c(=O)[nH]c3=O)Nc3ccc4ccccc4c32)ccc1O (configuration not stated) | inactive | 
CCCC1Cc2[nH]c(=O)c(C#N)cc2CO1 (configuration not stated) | inactive | 
Cc1nc(SCC(=O)N2CC(=O)Nc3ccccc32)c2c(C)c(C)sc2n1 | inconclusive [inhibitor, single point] | 
O=C(NCc1ccccc1)C(c1ccc(F)cc1)N(C(=O)c1csnn1)c1ccccc1 (configuration not stated) | inconclusive [inhibitor, partial curve, poor fit] | 
COc1ccc(CCc2c[nH]c(=O)c3cncnc23)cc1OC |  | inconclusive: -31.2% [inhibitor]

SMILES | Potency | activity change, negative = growth inhibition
Cc1ccccc1-n1nc2c(c1NC(=O)c1c(-c3ccccc3Cl)noc1C)CSC2 | active: 20.6 µM | 
CC1CC(C)(C)NC(=S)N1CCCC(=O)Nc1ccc(Br)cc1 (configuration not stated) | inconclusive [inhibitor, single point] | 
COc1cc(CNCCO)cc(Cl)c1OCc1ccc(Cl)cc1Cl | active: 20.6 µM | 
Nn1c(SCC(=O)Nc2ccc(OC(F)F)cc2)nnc(Cc2ccccc2)c1=O |  | inconclusive: -32.1% [inhibitor]
Cc1ccc(C)c(Nc2nnc(-n3nc(C)cc3C)c3ccccc23)c1 | inconclusive [inhibitor, single point] | 
N#Cc1nc(-c2cccs2)oc1NCc1ccc(Cl)cc1 | inconclusive [inhibitor, single point] | 
COC(=O)c1oc2c(c1C)C1(CCC2)SCCS1 | inconclusive [inhibitor, partial curve] | 
CC(OC(=O)c1ccccc1CCc1ccccc1)C(N)=O (configuration not stated) | inconclusive [inhibitor, partial curve] | 
S=c1[nH]nc(-c2ccco2)n1/N=C/c1ccccc1Cl | inactive | 
Cc1ccc(Cl)cc1-n1ncc2c(NC3CCCCCC3)ncnc21 | active: 20.6 µM | 
Cc1cccc(C(=O)OCC(=O)N2c3ccccc3CC2C)c1C (configuration not stated) | inconclusive [inhibitor, single point] | 
COc1cccc(N(CC(=O)NC2CCCC2)C(=O)CCCC(=O)Nc2ccccn2)c1 | inactive | 
COc1ccc(S(=O)(=O)N[C@@H]2C=C[C@@H](CC(=O)N3CCc4ccccc4C3)O[C@@H]2CO)cc1 | inconclusive [inhibitor, partial curve] | 
CS(=O)(=O)N1CCN(c2ccccc2NC(=S)NC(=O)c2ccccc2[N+](=O)[O-])CC1 | inconclusive [inhibitor, single point] | 
S=C(NCCc1ccccc1)Nc1cnc2ccccc2c1 | inconclusive [inhibitor, single point] | 
COCC(C)n1c(SCC(=O)N2CCc3ccccc3C2)nc2ccccc2c1=O (configuration not stated) | active: 1.84 µM | 
COc1ccc(C)cc1N(CC(=O)Nc1cccnc1)S(=O)(=O)c1ccc(C)cc1 | inconclusive [inhibitor, partial curve] | 
O=C1c2ccccc2C2(c3ccccc3)N1CCN2C(=O)C(Cl)(Cl)Cl (configuration not stated) | inconclusive [inhibitor, single point] | 
O=C(O)c1cc(-n2c(/C=C\c3ccc(F)cc3)nc3ccccc3c2=O)ccc1Cl | active: 20.6 µM | 
Cc1cccc(N2CCN(CCNC(=O)C3COc4ccccc4C3)CC2)c1C (configuration not stated) | active: 23.1 µM | 
O=C(c1n[nH]c(=O)c2ccccc12)N1CCN(c2ccc(F)cc2)CC1 | inconclusive [inhibitor, single point] | 
O=C(NCc1ccc(Cl)cc1)c1cnc(N2CCCCC2)c2ccccc12 | inconclusive [inhibitor, single point] | 
CCc1ccc(O)c(CNCCNCc2cc(CC)ccc2O)c1 | active: 16.4 µM | 
CC(C)c1nnc(NC(=O)CCS(=O)(=O)c2ccccc2)s1 | inconclusive [inhibitor, single point] | 
